These are yes or no findings as the source states them, for the method shown. Binding seen in cells or lysates may run through a third protein. Some binding calls cover weakened binding; strength is not graded here. For some assays here: Tags and fused reporters may be left off the sequences shown.
Legend:
[1] = target: T1, GFP-tagged Hs HELZ-N (residues M1-D1050) (human) (UniProt P42694); test: co-IP; GFP immunoprecipitation from HEK293T cells transfected with GFP-tagged HELZ (full-length, fragments or F1107V); endogenous NOT1, NOT3, PABPC1 detected by Western blot; lysates treated with RNase A before IP
T1 sequence: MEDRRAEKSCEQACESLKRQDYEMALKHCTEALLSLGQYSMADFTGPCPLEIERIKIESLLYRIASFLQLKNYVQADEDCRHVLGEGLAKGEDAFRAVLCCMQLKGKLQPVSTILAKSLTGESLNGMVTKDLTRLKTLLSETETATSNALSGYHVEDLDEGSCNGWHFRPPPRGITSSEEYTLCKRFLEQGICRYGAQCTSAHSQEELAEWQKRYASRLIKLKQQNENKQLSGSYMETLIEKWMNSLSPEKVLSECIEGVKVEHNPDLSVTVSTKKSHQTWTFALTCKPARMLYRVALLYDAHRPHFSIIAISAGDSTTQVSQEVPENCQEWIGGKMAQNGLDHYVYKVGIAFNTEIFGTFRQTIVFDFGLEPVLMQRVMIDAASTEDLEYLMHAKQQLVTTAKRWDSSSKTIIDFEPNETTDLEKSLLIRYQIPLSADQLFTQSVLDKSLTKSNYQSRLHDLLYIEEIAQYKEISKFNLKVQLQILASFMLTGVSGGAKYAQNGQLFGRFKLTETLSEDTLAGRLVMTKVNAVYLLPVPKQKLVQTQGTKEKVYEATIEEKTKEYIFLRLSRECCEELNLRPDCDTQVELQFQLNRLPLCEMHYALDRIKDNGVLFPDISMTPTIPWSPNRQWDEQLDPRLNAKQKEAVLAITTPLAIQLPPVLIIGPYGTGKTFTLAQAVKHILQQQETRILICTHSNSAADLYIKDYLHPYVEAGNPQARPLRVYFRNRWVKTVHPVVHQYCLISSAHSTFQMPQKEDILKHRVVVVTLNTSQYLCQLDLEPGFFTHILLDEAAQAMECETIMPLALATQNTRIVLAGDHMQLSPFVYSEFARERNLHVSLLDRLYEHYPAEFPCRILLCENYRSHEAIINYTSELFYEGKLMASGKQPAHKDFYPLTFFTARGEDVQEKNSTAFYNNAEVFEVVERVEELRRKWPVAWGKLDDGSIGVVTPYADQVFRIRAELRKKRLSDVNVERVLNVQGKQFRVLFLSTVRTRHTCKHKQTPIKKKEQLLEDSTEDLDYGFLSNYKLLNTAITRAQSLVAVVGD

Protein sequences, listed by entry. Tags and fused reporters are not part of them.
UniProt A5YKK6: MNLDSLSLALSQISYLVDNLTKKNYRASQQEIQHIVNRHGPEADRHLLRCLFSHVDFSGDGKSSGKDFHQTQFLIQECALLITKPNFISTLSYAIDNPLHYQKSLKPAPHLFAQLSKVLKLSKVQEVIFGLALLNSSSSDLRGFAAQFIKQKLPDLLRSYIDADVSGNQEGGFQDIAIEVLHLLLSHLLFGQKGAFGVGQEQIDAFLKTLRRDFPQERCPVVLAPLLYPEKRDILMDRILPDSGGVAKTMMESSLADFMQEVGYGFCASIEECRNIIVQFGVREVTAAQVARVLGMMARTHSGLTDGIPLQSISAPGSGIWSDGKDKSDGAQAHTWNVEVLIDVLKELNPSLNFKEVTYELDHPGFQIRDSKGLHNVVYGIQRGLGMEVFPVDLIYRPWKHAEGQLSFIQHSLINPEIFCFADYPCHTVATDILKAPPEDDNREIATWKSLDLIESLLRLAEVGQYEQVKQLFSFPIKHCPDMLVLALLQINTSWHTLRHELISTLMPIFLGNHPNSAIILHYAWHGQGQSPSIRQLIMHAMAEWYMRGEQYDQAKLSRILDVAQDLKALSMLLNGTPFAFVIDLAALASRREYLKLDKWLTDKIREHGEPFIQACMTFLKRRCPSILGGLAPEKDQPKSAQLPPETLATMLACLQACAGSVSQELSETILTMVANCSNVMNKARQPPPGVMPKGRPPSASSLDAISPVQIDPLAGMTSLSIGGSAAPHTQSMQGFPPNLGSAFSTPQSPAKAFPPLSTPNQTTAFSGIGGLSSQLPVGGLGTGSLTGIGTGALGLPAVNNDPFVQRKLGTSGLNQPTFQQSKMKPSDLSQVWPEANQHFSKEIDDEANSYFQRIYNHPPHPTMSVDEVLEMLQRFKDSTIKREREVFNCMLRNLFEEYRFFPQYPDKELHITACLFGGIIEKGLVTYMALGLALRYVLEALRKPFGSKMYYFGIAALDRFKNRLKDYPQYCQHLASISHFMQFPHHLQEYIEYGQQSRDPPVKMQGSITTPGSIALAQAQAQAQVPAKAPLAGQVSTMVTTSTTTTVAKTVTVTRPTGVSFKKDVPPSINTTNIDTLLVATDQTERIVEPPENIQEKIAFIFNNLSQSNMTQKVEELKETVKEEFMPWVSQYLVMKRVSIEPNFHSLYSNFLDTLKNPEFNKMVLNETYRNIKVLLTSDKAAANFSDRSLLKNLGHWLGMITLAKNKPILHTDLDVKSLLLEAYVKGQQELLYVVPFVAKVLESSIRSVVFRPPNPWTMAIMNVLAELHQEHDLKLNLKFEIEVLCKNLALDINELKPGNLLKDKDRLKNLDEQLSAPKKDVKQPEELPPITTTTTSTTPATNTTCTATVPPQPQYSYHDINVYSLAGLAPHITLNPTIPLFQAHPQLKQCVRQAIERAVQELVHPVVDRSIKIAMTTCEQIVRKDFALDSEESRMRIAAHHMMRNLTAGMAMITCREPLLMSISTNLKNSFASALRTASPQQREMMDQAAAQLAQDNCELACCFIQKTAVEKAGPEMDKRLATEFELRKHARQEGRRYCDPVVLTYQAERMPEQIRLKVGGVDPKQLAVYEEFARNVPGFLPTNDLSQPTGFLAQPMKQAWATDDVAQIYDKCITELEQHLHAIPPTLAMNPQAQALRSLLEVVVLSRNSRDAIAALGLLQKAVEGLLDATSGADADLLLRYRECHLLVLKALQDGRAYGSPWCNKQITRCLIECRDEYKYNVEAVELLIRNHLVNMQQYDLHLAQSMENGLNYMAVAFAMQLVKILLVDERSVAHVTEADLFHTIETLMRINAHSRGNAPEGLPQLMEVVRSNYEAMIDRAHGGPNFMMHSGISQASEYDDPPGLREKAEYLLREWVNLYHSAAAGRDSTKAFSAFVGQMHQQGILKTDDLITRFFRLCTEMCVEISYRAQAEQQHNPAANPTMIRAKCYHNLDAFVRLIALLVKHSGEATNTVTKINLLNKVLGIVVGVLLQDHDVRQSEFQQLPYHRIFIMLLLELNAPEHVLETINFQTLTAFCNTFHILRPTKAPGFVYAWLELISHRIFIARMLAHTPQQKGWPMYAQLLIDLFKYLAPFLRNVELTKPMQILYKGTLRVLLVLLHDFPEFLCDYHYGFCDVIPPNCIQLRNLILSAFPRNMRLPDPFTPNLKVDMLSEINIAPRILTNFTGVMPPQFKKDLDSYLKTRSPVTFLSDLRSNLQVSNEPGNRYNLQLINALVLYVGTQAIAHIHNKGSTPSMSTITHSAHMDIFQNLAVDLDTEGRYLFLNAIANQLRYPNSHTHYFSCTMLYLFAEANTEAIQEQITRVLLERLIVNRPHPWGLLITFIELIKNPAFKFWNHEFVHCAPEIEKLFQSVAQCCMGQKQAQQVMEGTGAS
UniProt O75175: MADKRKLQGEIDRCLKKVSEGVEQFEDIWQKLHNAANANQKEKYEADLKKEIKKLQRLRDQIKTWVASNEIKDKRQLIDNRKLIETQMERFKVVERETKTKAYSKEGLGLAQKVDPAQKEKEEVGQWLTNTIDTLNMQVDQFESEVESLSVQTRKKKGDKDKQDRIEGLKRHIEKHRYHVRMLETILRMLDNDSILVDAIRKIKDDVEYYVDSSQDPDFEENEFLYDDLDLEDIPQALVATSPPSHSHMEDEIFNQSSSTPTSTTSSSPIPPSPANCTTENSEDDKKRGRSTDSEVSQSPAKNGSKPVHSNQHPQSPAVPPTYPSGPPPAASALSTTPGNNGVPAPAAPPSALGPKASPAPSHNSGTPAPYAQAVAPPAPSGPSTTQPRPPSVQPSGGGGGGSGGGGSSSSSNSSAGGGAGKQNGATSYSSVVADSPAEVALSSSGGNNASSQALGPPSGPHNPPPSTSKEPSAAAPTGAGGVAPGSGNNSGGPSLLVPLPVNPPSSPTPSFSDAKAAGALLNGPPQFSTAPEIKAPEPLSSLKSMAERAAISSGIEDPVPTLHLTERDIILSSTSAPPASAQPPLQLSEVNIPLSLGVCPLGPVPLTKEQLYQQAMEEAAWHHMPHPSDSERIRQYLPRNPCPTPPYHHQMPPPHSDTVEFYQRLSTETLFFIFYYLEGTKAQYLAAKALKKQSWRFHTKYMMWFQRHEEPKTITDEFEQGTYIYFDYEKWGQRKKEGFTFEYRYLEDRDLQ

[2] = target: GFP-tagged Hs HELZ (helicase with zinc-finger), full-length (human) (UniProt P42694); test: as above
[3] = target: T2, GFP-tagged Hs HELZ-C (residues P1051-K1942) (human) (UniProt P42694); test: as above
T2 sequence: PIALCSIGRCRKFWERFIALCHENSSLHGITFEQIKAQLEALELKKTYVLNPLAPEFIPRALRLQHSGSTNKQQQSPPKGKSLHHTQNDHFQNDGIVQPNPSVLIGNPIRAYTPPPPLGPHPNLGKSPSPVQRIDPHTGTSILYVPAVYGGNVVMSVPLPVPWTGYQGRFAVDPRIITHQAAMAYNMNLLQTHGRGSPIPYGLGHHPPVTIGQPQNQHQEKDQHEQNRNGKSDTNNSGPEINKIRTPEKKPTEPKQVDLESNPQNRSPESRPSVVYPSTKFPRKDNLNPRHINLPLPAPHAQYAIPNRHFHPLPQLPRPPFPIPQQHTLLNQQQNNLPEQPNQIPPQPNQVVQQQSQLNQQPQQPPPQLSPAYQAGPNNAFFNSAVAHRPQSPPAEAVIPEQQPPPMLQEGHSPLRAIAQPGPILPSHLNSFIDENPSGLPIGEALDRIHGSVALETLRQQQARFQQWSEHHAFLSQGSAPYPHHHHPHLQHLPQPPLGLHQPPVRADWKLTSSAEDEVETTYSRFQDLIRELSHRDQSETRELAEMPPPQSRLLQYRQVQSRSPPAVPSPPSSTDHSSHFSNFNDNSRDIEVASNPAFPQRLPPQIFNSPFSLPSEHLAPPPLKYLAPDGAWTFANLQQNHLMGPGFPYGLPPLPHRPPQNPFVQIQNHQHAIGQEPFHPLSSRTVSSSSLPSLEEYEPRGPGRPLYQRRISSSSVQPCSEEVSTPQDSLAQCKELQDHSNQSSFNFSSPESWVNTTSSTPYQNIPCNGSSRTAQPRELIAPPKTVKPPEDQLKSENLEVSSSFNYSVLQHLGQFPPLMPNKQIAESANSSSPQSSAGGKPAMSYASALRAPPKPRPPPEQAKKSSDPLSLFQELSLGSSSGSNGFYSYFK

[4] = target: GFP-tagged Hs HELZ (helicase with zinc-finger), full-length (human) (UniProt P42694); test: co-IP; GFP immunoprecipitation from HEK293T cells co-transfected with GFP-Hs HELZ (bait) and an HA-tagged protein; lysates treated with RNase A before IP; Western blot

For “endogenous NOT1 (CCR4–NOT complex scaffold protein) (from UniProt A5YKK6 1-2376)”, the binding [1] was “no binding”, the binding [2] was “binds” and the binding [3] was “binds”.

In the case of “endogenous NOT3 (CCR4–NOT complex protein) (from UniProt O75175 1-753)”, the binding [1] is reported as “no binding”, the binding [2] is reported as “binds” and the binding [3] is reported as “binds”.

B1: HA-tagged Hs EDC4 (protein, UniProt Q6P2E9 1-1401)
chain: MASCASIDIEDATQHLRDILKLDRPAGGPSAESPRPSSAYNGDLNGLLVPDPLCSGDSTSANKTGLRTMPPINLQEKQVICLSGDDSSTCIGILAKEVEIVASSDSSISSKARGSNKVKIQPVAKYDWEQKYYYGNLIAVSNSFLAYAIRAANNGSAMVRVISVSTSERTLLKGFTGSVADLAFAHLNSPQLACLDEAGNLFVWRLALVNGKIQEEILVHIRQPEGTPLNHFRRIIWCPFIPEESEDCCEESSPTVALLHEDRAEVWDLDMLRSSHSTWPVDVSQIKQGFIVVKGHSTCLSEGALSPDGTVLATASHDGYVKFWQIYIEGQDEPRCLHEWKPHDGRPLSCLLFCDNHKKQDPDVPFWRFLITGADQNRELKMWCTVSWTCLQTIRFSPDIFSSVSVPPSLKVCLDLSAEYLILSDVQRKVLYVMELLQNQEEGHACFSSISEFLLTHPVLSFGIQVVSRCRLRHTEVLPAEEENDSLGADGTHGAGAMESAAGVLIKLFCVHTKALQDVQIRFQPQLNPDVVAPLPTHTAHEDFTFGESRPELGSEGLGSAAHGSQPDLRRIVELPAPADFLSLSSETKPKLMTPDAFMTPSASLQQITASPSSSSSGSSSSSSSSSSSLTAVSAMSSTSAVDPSLTRPPEELTLSPKLQLDGSLTMSSSGSLQASPRGLLPGLLPAPADKLTPKGPGQVPTATSALSLELQEVEPLGLPQASPSRTRSPDVISSASTALSQDIPEIASEALSRGFGSSAPEGLEPDSMASAASALHLLSPRPRPGPELGPQLGLDGGPGDGDRHNTPSLLEAALTQEASTPDSQVWPTAPDITRETCSTLAESPRNGLQEKHKSLAFHRPPYHLLQQRDSQDASAEQSDHDDEVASLASASGGFGTKVPAPRLPAKDWKTKGSPRTSPKLKRKSKKDDGDAAMGSRLTEHQVAEPPEDWPALIWQQQRELAELRHSQEELLQRLCTQLEGLQSTVTGHVERALETRHEQEQRRLERALAEGQQRGGQLQEQLTQQLSQALSSAVAGRLERSIRDEIKKTVPPCVSRSLEPMAGQLSNSVATKLTAVEGSMKENISKLLKSKNLTDAIARAAADTLQGPMQAAYREAFQSVVLPAFEKSCQAMFQQINDSFRLGTQEYLQQLESHMKSRKAREQEAREPVLAQLRGLVSTLQSATEQMAATVAGSVRAEVQHQLHVAVGSLQESILAQVQRIVKGEVSVALKEQQAAVTSSIMQAMRSAAGTPVPSAHLDCQAQQAHILQLLQQGHLNQAFQQALTAADLNLVLYVCETVDPAQVFGQPPCPLSQPVLLSLIQQLASDLGTRTDLKLSYLEEAVMHLDHSDPITRDHMGSVMAQVRQKLFQFLQAEPHNSLGKAARRLSLMLHGLVTPSLP
In the case of B1, the binding [4] is reported as “binds”.

B2: HA-tagged Hs PatL1 (protein, UniProt Q86TB9 1-770)
chain: MFRYESLEDCPLDEDEDAFQGLGEEDEEIDQFNDDTFGSGAVDDDWQEAHERLAELEEKLPVAVNEQTGNGERDEMDLLGDHEENLAERLSKMVIENELEDPAIMRAVQTRPVLQPQPGSLNSSIWDGSEVLRRIRGPLLAQEMPTVSVLEYALPQRPPQGPEDDRDLSERALPRRSTSPIIGSPPVRAVPIGTPPKQMAVPSFTQQILCPKPVHVRPPMPPRYPAPYGERMSPNQLCSVPNSSLLGHPFPPSVPPVLSPLQRAQLLGGAQLQPGRMSPSQFARVPGFVGSPLAAMNPKLLQGRVGQMLPPAPGFRAFFSAPPSATPPPQQHPPGPGPHLQNLRSQAPMFRPDTTHLHPQHRRLLHQRQQQNRSQHRNLNGAGDRGSHRSSHQDHLRKDPYANLMLQREKDWVSKIQMMQLQSTDPYLDDFYYQNYFEKLEKLSAAEEIQGDGPKKERTKLITPQVAKLEHAYKPVQFEGSLGKLTVSSVNNPRKMIDAVVTSRSEDDETKEKQVRDKRRKTLVIIEKTYSLLLDVEDYERRYLLSLEEERPALMDDRKHKICSMYDNLRGKLPGQERPSDDHFVQIMCIRKGKRMVARILPFLSTEQAADILMTTARNLPFLIKKDAQDEVLPCLLSPFSLLLYHLPSVSITSLLRQLMNLPQSAATPALSNPHLTAVLQNKFGLSLLLILLSRGEDLQSSDPATESTQNNQWTEVMFMATRELLRIPQAALAKPISIPTNLVSLFSRYVDRQKLNLLETKLQLVQGIR
With B2 the binding [4] was “binds”.
